Source: the supplement of paper PMC12217912
The list shows a part of the results. The full chains were built here from the parent and the listed change. Values near 0.05 are background.

B1: TEV protease; numbered along this chain (parent)
chain: MGESLFKGPRDYNPISSSICHLTNESDGHTTSLYGIGFGPFIITNKHLFRRNNGTLVVQSLHGVFKVKDTTTLQQHLVDGRDMIIIRMPKDFPPFPQKLKFREPQREERICLVTTNFQTKSMSSMVSDTSCTFPSGDGIFWKHWIQTKDGQCGSPLVSTRDGFIVGIHSASNFTNTNNYFTSVPKNFMELLTNQEAQQWVSGWRLNADSVLWGGHKVFMVKPEEPFQPVKEATQL

Variants of: B1
Test: raw area under fraction-flipped curve 0-4 h after induction (AUC4h, not background-subtracted), DNA-recorder readout of cleavage of the substrate (dimensionless); higher = more cleavage of the substrate by the protease variant
Conditions: temperature: 34 °C; time window: 0-4 h after rhamnose induction
Description: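 In vivo DNA recorder in E. coli TOP10(DE3) ΔrhaA at 34 °C. Each TEVp single-site mutant (parent TEVp 0) is paired with a single-site variant of the 7-mer TEVs (canonical ENLYFQ|S). The substrate sits between flexible linkers in a Bxb1-sfGFP-TEVs-SsrA fusion, so cleavage stabilises Bxb1 and speeds flipping of a recombination array, read by NGS. The value is the raw area under the fraction-flipped curve over 0-4 h after rhamnose induction (AUC4h), with ≥20 reads per time point. It is not background-subtracted; inactive controls average about 0.047.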
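Further: Bxb1 expression induced with 0.2% (w/v) L-rhamnose at OD600 near 0.5, cultures sampled hourly, flipped fraction per protease–substrate barcode pair counted by paired-end Illumina sequencing.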

Variant	area with substrate ENLYFAS	area with substrate ENLYFCS	area with substrate ENLYFDS	area with substrate ENLYFFS	area with substrate ENLYFIS	area with substrate ENLYFKS	area with substrate ENLYFLS	area with substrate ENLYFMS	area with substrate ENLYFNS	area with substrate ENLYFPS	area with substrate ENLYFRS	area with substrate ENLYFSS	area with substrate ENLYFTS	area with substrate ENLYFYS	area with substrate ENLYFES	area with substrate ENLYFGS	area with substrate ENLYFVS	area with substrate ENLYFWS	area with substrate ENLYFHS
K46H	0.0583	0.0594	0.047	0.0683	0.0576	0.0544	0.0576	0.0599	0.0654	0.0559	0.0626	0.0579	0.0595	0.0502	–	–	–	–	–
K46Y	0.0496	0.0594	0.0462	0.0574	–	0.0578	–	0.0568	0.0554	0.0522	0.0744	–	0.0567	0.0416	0.054	0.0574	0.0668	0.0511	–
K46L	0.057	0.037	0.0558	0.0635	0.0513	0.0573	0.0555	0.058	–	0.063	0.0502	0.0694	0.0626	–	0.0682	–	0.0495	0.055	0.0621
I43P	0.032	0.0418	0.0518	0.0494	0.0439	0.0458	0.0412	0.0394	–	0.0456	0.0292	0.03	0.0377	0.0492	0.0495	0.0423	0.0452	–	0.054
I43T	0.0539	0.0626	0.0429	0.0561	0.0503	0.0565	–	0.0571	0.0551	0.0601	0.0525	0.0585	0.0513	0.0534	0.0552	0.0697	–	0.0558	0.0393
I43C	0.0588	–	0.0574	0.0685	0.0501	0.0574	–	0.0641	0.0559	0.0564	0.0548	0.0521	0.0629	–	0.0579	0.0317	0.0427	0.0682	0.0568
H62M	0.0516	–	0.0529	0.077	0.0485	–	–	–	0.0625	0.073	–	–	0.0372	–	–	0.0602	0.0553	0.0608	0.0647
D69R	0.0575	0.0271	0.0572	0.0704	0.0585	0.0552	0.0325	0.0623	0.0632	0.0737	0.0539	–	0.0683	0.0528	0.0628	0.0583	0.0532	–	–
T55Y	0.0627	–	0.0522	0.0572	0.0544	–	0.0591	0.0543	0.0624	0.0594	0.066	0.0564	0.0562	0.0479	0.0497	–	0.0609	0.0382	0.0598
F38L	0.0626	0.0563	0.0564	0.0645	0.0522	–	0.0617	0.0577	0.0621	0.0526	0.0542	0.0516	0.054	0.0508	0.0564	–	0.0526	0.0534	0.0538
F38M	0.058	0.0581	–	0.0659	0.0522	0.0551	–	0.0553	0.0579	0.0614	–	–	0.0579	0.057	0.0526	0.0655	0.0568	0.0507	0.068
F38A	0.0711	0.0525	0.0514	0.0446	0.0502	–	–	0.0492	0.0736	0.0513	–	–	–	–	0.0408	–	0.0531	0.0388	–
S60D	0.0789	0.0508	–	–	0.0257	0.0501	0.0527	0.0714	–	0.0396	0.047	0.0499	0.052	0.0443	0.0376	–	0.0497	0.0196	0.0646
S60Y	0.0596	0.0516	–	0.0703	0.0549	–	0.0537	0.0598	0.0657	–	0.0485	0.051	–	–	0.0674	–	0.0473	–	0.0613
S60E	0.0459	0.0384	0.0465	0.0471	0.0419	0.0424	0.0549	0.0474	0.0462	0.0461	0.0512	0.0564	0.0538	0.0288	0.0477	0.0504	0.0448	0.048	0.0448
K68L	0.0453	0.0536	0.0552	0.078	0.0577	0.0749	–	0.0601	0.0579	0.0453	–	0.0495	0.0645	0.0482	0.0613	–	0.0663	0.0464	0.0533
K68Q	0.0422	0.0608	0.075	–	0.0566	–	–	0.0599	–	0.0579	–	–	0.0705	–	0.0872	–	–	0.0505	0.0454
T70W	0.0587	0.057	–	–	0.0613	0.0775	0.063	0.0647	0.059	0.0614	–	0.0565	0.0637	0.0583	0.0605	0.063	0.058	0.0604	0.067
T70A	0.0918	0.0237	–	0.0584	0.0528	0.052	0.0701	0.0665	0.0532	0.0547	0.0759	–	0.0597	0.0607	0.0608	0.0518	0.0419	0.0649	–
T70D	0.0496	0.0496	–	0.0392	0.0432	–	–	0.0497	0.0667	0.0584	–	0.0702	0.0509	–	0.0637	0.0141	0.0377	0.0573	0.0573
N53R	0.0583	–	–	0.0649	0.0561	0.0829	–	0.0768	–	0.0877	0.0642	0.0538	0.0666	0.0473	0.0725	–	0.0608	0.0528	0.0478
N53T	0.0763	0.0748	0.0518	–	0.0575	0.0428	–	0.0615	0.0636	0.0217	0.0578	0.0415	–	0.0402	0.0656	0.0554	0.0617	0.047	–
N53I	0.0547	0.0575	0.0591	0.0657	0.0652	0.0604	0.0584	0.0579	–	0.123	0.09	–	0.0657	–	0.056	–	0.0504	0.0612	0.0418
